Experimental data reported in the supplement of paper PMC5499739.
Whole data set: some 16,000 sequences, median “Z-score” near -0.37, cut for the highest 2% near 3.2. This is one part of the list.

Test system: RBM10 RRM1-ZnF (GST-tagged construct)
Assay: RNAcompete 7-mer binding Z-score; higher = stronger binding preference
Procedure: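 RNAcompete: 20 pmol GST-tagged RBM10 RNA-binding constructs were incubated with a designed RNA pool of about 241,000 sequences up to 41 nt (1.5 nmol) on glutathione beads for 30 min at 4 °C and washed. Bound RNAs were identified by microarray hybridisation. Each RNA 7-mer is scored by a one-sided Z-score of its enrichment, computed over probes that contain the 7-mer within longer pool sequences.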

Sequence	RNAcompete 7-mer binding Z-score
CGUUACA	-0.474
AGUGGUG	2.37
UAAUGAA	-0.175
CUUGGGU	1.38
CACUGGG	1.41
ACCGGCA	-0.454
UUUCUCA	-0.834
AAAAGUU	-0.269
UGAGAGC	0.482
GACCAUU	-0.915
CCGCCUC	-0.717
UUUAACC	-0.733
GUCAUGC	-0.454
UAUUGGU	0.852
AUAUAUG	0.0658
UGCAUGA	-0.353
CACAGUC	-0.509
CACACUA	-0.493
ACGCGCG	-0.0317
CUCCAUC	-0.863
GGAUUGG	3.79
AAAUAGA	0.287
GUAUCGC	-0.162
GCUGAGC	0.209

Sequence	RNAcompete 7-mer binding Z-score
CAUCUUU	-0.909
GUACUGC	-0.23
AGGGAGA	2.66
CCUAUGC	-0.691
AGGCCGA	-0.0999
AAAGGGA	4.42
CGCACCU	-0.591
CGUCAGC	-0.529
AUGCAAC	-0.214
UGUCACA	-0.655
GUAGCUC	-0.246
ACAGGCU	0.287
CCCUUCA	-0.776
UGGCAGC	0.397
GGAUACU	1.06
AGCCGCA	-0.288
CAUGUGU	-0.0642
CGGCGCU	-0.311
ACACCUU	-0.763
ACCGGAC	-0.431
AAGCACC	-0.47
CGAAUGG	1.29
AUAUAGU	-0.139
UAACGGU	0.547

Sequence	RNAcompete 7-mer binding Z-score
CUCGCAG	-0.11
UGUUAUA	-0.493
AGCUUCG	-0.655
GGGGUUG	3.76
ACUCGUA	-0.607
AUCACAU	-0.457
CCAAUAG	-0.233
CUUAGGC	-0.48
GACUUGG	0.628
UAAGGAU	1.42
AUGGCUC	-0.227
UAAAUCU	-0.772
GCCUAGC	-0.62
GGAGUGG	4.84
AAGAGUC	-0.11
AGAUUCC	-0.72
AAUUGUC	-0.639
AAUCACC	-0.642
AAUCAGC	-0.464
UCGUGAC	-0.659
GACCCAA	-0.685
UGUAAUU	-0.36
CGCUUCA	-0.675
AUUACUA	-0.555

Sequence	RNAcompete 7-mer binding Z-score
AAGGCGA	1.36
GCUGAUU	-0.285
AAAUGGA	3.63
ACCUGUU	-0.971
UAACAGA	0.105
GCGUCUU	-0.61
GCUUUCA	-0.652
GAGUAGA	1.37
AACGGUC	0.0138
GUGGUGG	3.9
GGAGUAA	1.2
AGCAUAA	-0.292
AUAAGUC	-0.383
UUUCGUA	-0.779
UGUCCUG	-0.565
UGCACUG	-0.0772
UCCUAGG	-0.292
AGGCUAA	-0.0187
AGUGAGC	0.69
GCUCCUA	-0.678
AUUGCCA	-0.73
GACUAGU	-0.103
UACACCA	-0.552
CAAAAGC	-0.626

Sequence	RNAcompete 7-mer binding Z-score
CUUCCGA	-0.847
GCCCUAG	-0.422
AGAUACG	0.0593
GUUUGCA	-0.0804
GACUACC	-0.834
CCUGACA	-0.727
UAACAAA	-0.373
UACACUU	-0.62
CCUUGAU	-0.704
GGAGGGC	3.13
UGAGCUG	0.654
UCGGUGG	1.6
UUACCUU	-0.737
GAUGAAA	1.09
CCGGUUA	-0.171
AUGCCAA	-0.733
ACCCCCC	-0.158
GAAAGCG	0.855
CAGGGCG	2.02
AAUUUAG	-0.318
UAUAAAG	-0.0544
GAGGUUA	1.57
UCAUAGA	-0.623
AAAUCAA	-0.503

Sequence	RNAcompete 7-mer binding Z-score
ACUAGGC	-0.392
AGACUGA	-0.448
UCUUGCU	-0.815
UCGACGG	0.205
UUGUUAU	-0.6
GCGACGC	-0.171
GGGUCAG	2.55
GGCCAGG	1.12
GACUGCU	-0.795
UAGCUUU	-0.776
CCCGCUA	-0.724
GGAAGGU	4.23
GUGGUCU	0.54
GCGACUC	-0.529
AGGUUCG	0.371
CCAUUAG	-0.529
ACACGUA	-0.256
AUGUUUU	-0.613
CAAGUUU	-0.766
GUCCAAA	-0.457
CCAUAAA	-0.717
GGCACAG	0.891
GAAUAAC	-0.275
UAAUUGA	-0.444

Sequence	RNAcompete 7-mer binding Z-score
UCAAAGU	-0.545
CUGCUAG	-0.513
CACGGGC	0.316
CAGCGUA	-0.279
AAGUACG	0.0105
CGGUGAC	0.183
CUGUCUA	-0.821
ACGCGAA	-0.412
UUAGAUG	0.137
UUUUUGA	-0.409
AGGAAUG	2.25
UAAAAUA	-0.431
UCGGUUU	-0.227
GGCUCGC	-0.178
AUGCUAC	-0.578
UGAUCGC	-0.474
ACCGCGG	0.677
AUUAAGA	-0.214
AGGGCGU	1.19
AGCUGCA	-0.308
GACUAUA	-0.542
UAAGGAC	0.972
UUAAGCA	-0.513
ACUUUAG	-0.665

Sequence	RNAcompete 7-mer binding Z-score
AUGCCAC	-0.62
UCCAGAA	-0.633
GUAGGAU	2.49
GAUUAGU	0.465
UUAUCAC	-0.558
UGUACAU	-0.422
UUCCGGA	-0.428
GUUUAUU	-0.526
ACAAAGG	1.64
UAACUCA	-0.552
GCUCAAA	-0.266
CCGAUUU	-0.974
CACAGGU	0.625
GGGGCCG	1.12
ACCCUAU	-0.909
UGCUCAU	-0.639
CAGCUCC	-0.724
GACACGA	-0.223
GAUAUCG	-0.00571
CUAGCAC	-0.636
UGGUAAG	2.11
GCGAUCA	-0.178
GUCGAUG	0.225
UGCCCAG	-0.5

Sequence	RNAcompete 7-mer binding Z-score
AGGAGGA	2.25
AGCCGUA	-0.646
CGAGGAU	1.35
CGAUGAC	-0.311
UAUGAAU	0.00404
AUUCUAU	-0.73
CCUCGAG	-0.649
UAGAGGC	0.722
CGACUCG	-0.519
ACAGGAG	2.44
CCGAACA	-0.662
CUUCGCC	-0.746
CGUACCU	-0.854
UCUCGUA	-0.795
GCGUGCG	0.703
AGGGUCA	1.14
CCACACC	-0.288
GUGAACC	-0.00246
AUGCUGG	0.768
AGACCGU	-0.958
CUGGUUG	0.657
AAUUACC	-0.831
UACCAUA	-0.704
CGGUUAU	0.115

Sequence	RNAcompete 7-mer binding Z-score
GUCCAGA	-0.474
CGUGGCG	1.11
AGUUAUU	-0.6
CUUAUAU	-0.737
CCUGGGC	0.436
GAACAGG	2.75
GCACGUU	-0.184
GUUCAGU	-0.214
UCAGAUA	-0.357
AAUAGCG	0.176
AAUACUC	-0.639
CAAAUAG	-0.21
CGCUAAU	-0.597
CACUUAC	-0.737
GCGGGGC	2.47
AUAGAUA	-0.0999
CGGAUUA	0.443
AUCCCCA	-0.701
